# According to US20240076381A1 (BOARD OF TRUSTEES OF THE UNIVERSITY OF ILLINOIS, published 2024):
# B1: FcRn-µ2m fusion protein (human β2m fused by (Gly4Ser)3 to the extracellular domain of human FcRn, His-tagged) (receptor)
# chain: not shown
# notes: also called FcRn-µ2m complex
# Molecular target: T1, Human serum albumin (human, UniProt P02768)
# T1 construct: mature; also called full-length albumin
# Assay: ELISA on coated FcRn-β2m fusion, pH 6; KD estimated by saturation binding fit; pH 6
binder,measurement,value
B1,Kd,300 nM
